{"source": "the supplement of paper PMC8728848", "experiment_in_all_cases": "glycan array binding signal (z-score within array); higher = stronger binding", "details_in_all_cases": "glycan notation: IUPAC condensed, linker removed", "key": {"[1]": {"target": "Fuc(a1-2)Gal(b1-4)GlcNAc(b1-2)[Fuc(a1-2)Gal(b1-4)GlcNAc(b1-4)]Man(a1-3)[Fuc(a1-2)Gal(b1-4)GlcNAc(b1-2)Man(a1-6)]Man(b1-4)GlcNAc(b1-4)GlcNAc", "method_in_brief": "(§1)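 The binding signal is a Z-score computed within each array. Data were drawn from 3228 arrays in the Consortium for Functional Glycomics database, restricted to those with a known protein sequence. Scores were averaged over arrays of the same protein sequence at different concentrations or buffers, and over linkers, and negative values can be taken as non-binding.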"}, "[2]": {"target": "Fuc(a1-2)Gal(b1-4)GlcNAc(b1-3)Gal(b1-4)GlcNAc", "method_in_brief": "as §1"}, "[3]": {"target": "Fuc(a1-2)Gal(b1-4)GlcNAc(b1-3)Gal(b1-4)GlcNAc(b1-2)Man(a1-3)[Fuc(a1-2)Gal(b1-4)GlcNAc(b1-3)Gal(b1-4)GlcNAc(b1-2)Man(a1-6)]Man(b1-4)GlcNAc(b1-4)GlcNAc", "method_in_brief": "as §1"}, "[4]": {"target": "Fuc(a1-2)Gal(b1-4)GlcNAc(b1-3)Gal(b1-4)GlcNAc(b1-3)Gal(b1-4)GlcNAc", "method_in_brief": "as §1"}, "[5]": {"target": "Fuc(a1-2)Gal(b1-4)GlcNAc(b1-3)GalNAc", "method_in_brief": "as §1"}, "[6]": {"target": "Fuc(a1-2)Gal(b1-4)GlcNAc(b1-3)[Fuc(a1-2)Gal(b1-4)GlcNAc(b1-6)]GalNAc", "method_in_brief": "as §1"}, "[7]": {"target": "Fuc(a1-2)Gal(b1-4)GlcNAc(b1-3)[Fuc(a1-3)[Gal(b1-4)]GlcNAc(b1-6)]Gal(b1-4)Glc", "method_in_brief": "as §1"}, "[8]": {"target": "Fuc(a1-2)Gal(b1-4)GlcNAc(b1-6)GalNAc", "method_in_brief": "as §1"}, "[9]": {"target": "Fuc(a1-2)Gal(b1-4)GlcNAc6S", "method_in_brief": "as §1"}, "[10]": {"target": "Fuc(a1-2)Gal(b1-4)[Fuc(a1-3)]GlcNAc", "method_in_brief": "as §1"}, "[11]": {"target": "Fuc(a1-2)Gal(b1-4)[Fuc(a1-3)]GlcNAc(b1-2)Man(a1-3)[Fuc(a1-2)Gal(b1-4)[Fuc(a1-3)]GlcNAc(b1-2)Man(a1-6)]Man(b1-4)GlcNAc(b1-4)GlcNAc", "method_in_brief": "as §1"}, "[12]": {"target": "Fuc(a1-2)Gal(b1-4)[Fuc(a1-3)]GlcNAc(b1-2)Man(a1-3)[Fuc(a1-2)Gal(b1-4)[Fuc(a1-3)]GlcNAc(b1-2)Man(a1-6)]Man(b1-4)GlcNAc(b1-4)[Fuc(a1-6)]GlcNAc", "method_in_brief": "as §1"}, "[13]": {"target": "Fuc(a1-2)Gal(b1-4)[Fuc(a1-3)]GlcNAc(b1-2)[Fuc(a1-2)Gal(b1-4)[Fuc(a1-3)]GlcNAc(b1-4)]Man(a1-3)[Fuc(a1-2)Gal(b1-4)[Fuc(a1-3)]GlcNAc(b1-2)Man(a1-6)]Man(b1-4)GlcNAc(b1-4)GlcNAc", "method_in_brief": "as §1"}, "[14]": {"target": "Fuc(a1-2)Gal(b1-4)[Fuc(a1-3)]GlcNAc(b1-3)Gal(b1-4)[Fuc(a1-3)]GlcNAc", "method_in_brief": "as §1"}, "[15]": {"target": "Fuc(a1-2)Gal(b1-4)[Fuc(a1-3)]GlcNAc(b1-3)Gal(b1-4)[Fuc(a1-3)]GlcNAc(b1-3)Gal(b1-4)[Fuc(a1-3)]GlcNAc", "method_in_brief": "as §1"}, "[16]": {"target": "Fuc(a1-2)Gal(b1-4)[Fuc(a1-3)]GlcNAc(b1-3)GalNAc", "method_in_brief": "as §1"}, "[17]": {"target": "Fuc(a1-2)Gal(b1-4)[Fuc(a1-3)]GlcNAc(b1-3)[Neu5Ac(a2-6)Gal(b1-4)GlcNAc(b1-6)]Gal(b1-4)Glc", "method_in_brief": "as §1"}, "[18]": {"target": "Fuc(a1-2)Gal3S(b1-4)GlcNAc", "method_in_brief": "as §1"}, "[19]": {"target": "Fuc(a1-2)Gal6S(b1-3)GlcNAc", "method_in_brief": "as §1"}, "[20]": {"target": "Fuc(a1-2)Gal6S(b1-3)GlcNAc6S", "method_in_brief": "as §1"}, "Fuc(a1-2)Gal6S(b1-4)Glc": {"target": "Fuc(a1-2)Gal6S(b1-4)Glc", "method_in_brief": "as §1"}, "[21]": {"target": "Fuc(a1-2)Gal6S(b1-4)Glc6S", "method_in_brief": "as §1"}, "[22]": {"target": "Fuc(a1-2)Gal6S(b1-4)GlcNAc", "method_in_brief": "as §1"}, "Fuc(a1-2)[Gal(a1-3)]Gal": {"target": "Fuc(a1-2)[Gal(a1-3)]Gal", "method_in_brief": "as §1"}, "[23]": {"target": "Fuc(a1-2)[Gal(a1-3)]Gal(b1-3)GalNAc", "method_in_brief": "as §1"}, "[24]": {"target": "Fuc(a1-2)[Gal(a1-3)]Gal(b1-3)GalNAc(b1-3)Gal(a1-4)Gal(b1-4)Glc", "method_in_brief": "as §1"}, "[25]": {"target": "Fuc(a1-2)[Gal(a1-3)]Gal(b1-3)GlcNAc", "method_in_brief": "as §1"}, "[26]": {"target": "Fuc(a1-2)[Gal(a1-3)]Gal(b1-3)GlcNAc(b1-2)Man(a1-3)[Fuc(a1-2)[Gal(a1-3)]Gal(b1-3)GlcNAc(b1-2)Man(a1-6)]Man(b1-4)GlcNAc(b1-4)GlcNAc", "method_in_brief": "as §1"}, "[27]": {"target": "Fuc(a1-2)[Gal(a1-3)]Gal(b1-3)GlcNAc(b1-2)Man(a1-3)[Fuc(a1-2)[Gal(a1-3)]Gal(b1-3)GlcNAc(b1-2)Man(a1-6)]Man(b1-4)GlcNAc(b1-4)[Fuc(a1-6)]GlcNAc", "method_in_brief": "as §1"}, "[28]": {"target": "Fuc(a1-2)[Gal(a1-3)]Gal(b1-3)GlcNAc(b1-3)GalNAc", "method_in_brief": "as §1"}, "[29]": {"target": "Fuc(a1-2)[Gal(a1-3)]Gal(b1-3)GlcNAc(b1-6)GalNAc", "method_in_brief": "as §1"}, "[30]": {"target": "Fuc(a1-2)[Gal(a1-3)]Gal(b1-4)Glc", "method_in_brief": "as §1"}, "[31]": {"target": "Fuc(a1-2)[Gal(a1-3)]Gal(b1-4)GlcNAc", "method_in_brief": "as §1"}, "[32]": {"target": "Fuc(a1-2)[Gal(a1-3)]Gal(b1-4)GlcNAc(b1-2)Man", "method_in_brief": "as §1"}, "[33]": {"target": "Fuc(a1-2)[Gal(a1-3)]Gal(b1-4)GlcNAc(b1-2)Man(a1-3)[Fuc(a1-2)[Gal(a1-3)]Gal(b1-4)GlcNAc(b1-2)Man(a1-6)]Man(b1-4)GlcNAc(b1-4)GlcNAc", "method_in_brief": "as §1"}, "[34]": {"target": "Fuc(a1-2)[Gal(a1-3)]Gal(b1-4)GlcNAc(b1-2)Man(a1-3)[Fuc(a1-2)[Gal(a1-3)]Gal(b1-4)GlcNAc(b1-2)Man(a1-6)]Man(b1-4)GlcNAc(b1-4)[Fuc(a1-6)]GlcNAc", "method_in_brief": "as §1"}, "[35]": {"target": "Fuc(a1-2)[Gal(a1-3)]Gal(b1-4)GlcNAc(b1-3)GalNAc", "method_in_brief": "as §1"}, "[36]": {"target": "Fuc(a1-2)[Gal(a1-3)]Gal(b1-4)GlcNAc(b1-3)[Fuc(a1-2)[Gal(a1-3)]Gal(b1-4)GlcNAc(b1-6)]GalNAc", "method_in_brief": "as §1"}, "[37]": {"target": "Fuc(a1-2)[Gal(a1-3)]Gal(b1-4)GlcNAc(b1-6)GalNAc", "method_in_brief": "as §1"}, "[38]": {"target": "Fuc(a1-2)[Gal(a1-3)]Gal(b1-4)[Fuc(a1-3)]Glc", "method_in_brief": "as §1"}, "[39]": {"target": "Fuc(a1-2)[Gal(a1-3)]Gal(b1-4)[Fuc(a1-3)]GlcNAc", "method_in_brief": "as §1"}, "[40]": {"target": "Fuc(a1-2)[Gal(a1-3)]Gal(b1-4)[Fuc(a1-3)]GlcNAc(b1-3)GalNAc", "method_in_brief": "as §1"}, "[41]": {"target": "Fuc(a1-2)[Gal(a1-4)]Gal(b1-4)GlcNAc", "method_in_brief": "as §1"}, "[42]": {"target": "Fuc(a1-2)[GalNAc(a1-3)]Gal", "method_in_brief": "as §1"}, "[43]": {"target": "Fuc(a1-2)[GalNAc(a1-3)]Gal(b1-3)GalNAc(a1-3)[Fuc(a1-2)]Gal(b1-4)GlcNAc", "method_in_brief": "as §1"}}, "note": "This is one part of the list."}
{"binder": "Gal 1 (Mus musculus), P16045 (protein) MACGLVASNLNLKPGECLKVRGEVASDAKSFVLNLGKDSNNLCLHFNPRFNAHGDANTIVCNTKEDGTWGTEHREPAFPFQPGSITEVCITFDQADLTIKLPDGHEFKFPNRLNMEAINYMAADGDFKIKCVAFE", "values": [{"measurement": "glycan array binding signal (z-score)", "setting": "[1]", "value": 0.547}, {"measurement": "glycan array binding signal (z-score)", "setting": "[2]", "value": -0.082}, {"measurement": "glycan array binding signal (z-score)", "setting": "[3]", "value": 0.751}, {"measurement": "glycan array binding signal (z-score)", "setting": "[4]", "value": -0.014}, {"measurement": "glycan array binding signal (z-score)", "setting": "[5]", "value": -0.219}, {"measurement": "glycan array binding signal (z-score)", "setting": "[6]", "value": -0.06}, {"measurement": "glycan array binding signal (z-score)", "setting": "[7]", "value": -0.131}, {"measurement": "glycan array binding signal (z-score)", "setting": "[8]", "value": -0.126}, {"measurement": "glycan array binding signal (z-score)", "setting": "[9]", "value": -0.205}, {"measurement": "glycan array binding signal (z-score)", "setting": "[10]", "value": -0.34}, {"measurement": "glycan array binding signal (z-score)", "setting": "[11]", "value": -0.212}, {"measurement": "glycan array binding signal (z-score)", "setting": "[12]", "value": -0.266}, {"measurement": "glycan array binding signal (z-score)", "setting": "[13]", "value": -0.199}, {"measurement": "glycan array binding signal (z-score)", "setting": "[14]", "value": -0.414}, {"measurement": "glycan array binding signal (z-score)", "setting": "[15]", "value": -0.316}, {"measurement": "glycan array binding signal (z-score)", "setting": "[16]", "value": -0.099}, {"measurement": "glycan array binding signal (z-score)", "setting": "[17]", "value": -0.44}, {"measurement": "glycan array binding signal (z-score)", "setting": "[18]", "value": -0.367}, {"measurement": "glycan array binding signal (z-score)", "setting": "[19]", "value": -0.468}, {"measurement": "glycan array binding signal (z-score)", "setting": "[20]", "value": -0.087}, {"measurement": "glycan array binding signal (z-score)", "setting": "Fuc(a1-2)Gal6S(b1-4)Glc", "value": -0.302}, {"measurement": "glycan array binding signal (z-score)", "setting": "[21]", "value": -0.128}, {"measurement": "glycan array binding signal (z-score)", "setting": "[22]", "value": -0.185}, {"measurement": "glycan array binding signal (z-score)", "setting": "Fuc(a1-2)[Gal(a1-3)]Gal", "value": -0.365}, {"measurement": "glycan array binding signal (z-score)", "setting": "[23]", "value": -0.363}, {"measurement": "glycan array binding signal (z-score)", "setting": "[24]", "value": -0.398}, {"measurement": "glycan array binding signal (z-score)", "setting": "[25]", "value": 0.982}, {"measurement": "glycan array binding signal (z-score)", "setting": "[26]", "value": -0.154}, {"measurement": "glycan array binding signal (z-score)", "setting": "[27]", "value": -0.208}, {"measurement": "glycan array binding signal (z-score)", "setting": "[28]", "value": -0.269}, {"measurement": "glycan array binding signal (z-score)", "setting": "[29]", "value": -0.272}, {"measurement": "glycan array binding signal (z-score)", "setting": "[30]", "value": -0.308}, {"measurement": "glycan array binding signal (z-score)", "setting": "[31]", "value": -0.078}, {"measurement": "glycan array binding signal (z-score)", "setting": "[32]", "value": -0.291}, {"measurement": "glycan array binding signal (z-score)", "setting": "[33]", "value": 0.106}, {"measurement": "glycan array binding signal (z-score)", "setting": "[34]", "value": 0.008}, {"measurement": "glycan array binding signal (z-score)", "setting": "[35]", "value": -0.361}, {"measurement": "glycan array binding signal (z-score)", "setting": "[36]", "value": -0.279}, {"measurement": "glycan array binding signal (z-score)", "setting": "[37]", "value": -0.106}, {"measurement": "glycan array binding signal (z-score)", "setting": "[38]", "value": -0.455}, {"measurement": "glycan array binding signal (z-score)", "setting": "[39]", "value": -0.297}, {"measurement": "glycan array binding signal (z-score)", "setting": "[40]", "value": -0.325}, {"measurement": "glycan array binding signal (z-score)", "setting": "[41]", "value": -0.404}, {"measurement": "glycan array binding signal (z-score)", "setting": "[42]", "value": -0.302}, {"measurement": "glycan array binding signal (z-score)", "setting": "[43]", "value": -0.382}]}
